# Measured values published in PubChem BioAssay AID1347071 (National Center for Advancing Translational Sciences (NCATS), 2019).
# Among all 410,000 compounds or so, about 260 (0.063%) were called active. This list was built around the results that the source calls inconclusive (neither active nor inactive); the mix of calls is not that of the screen. Calls follow the shape of the dose curve; as a rule, active = well fitted activation curve with a large enough effect; inconclusive = small, poorly fitted or top-dose-only effect; inactive = no such curve, though single readings can be large or run the other way. No potency is given beside an inconclusive call; the fits are too rough.
# Assay: qHTS for compounds that reverse cellular toxicity of Amyloid beta (A-beta) peptide in yeast: Primary Screen; also: nearly all actives have a fitted effect of over 55% in size
# Conditions: yeast expressing A-beta42, growth rescue, OD600, 48 h; growth rescue: at 46.1 µM (top of the series), 0% DMSO, 100% iron-clioquinol control
# Summary of the method: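 Yeast growth medium received pinned compounds, then yeast cells expressing toxic A-beta were added; plates incubated at 30 C for 48 hr. Growth read as absorbance at 600 nm, normalized to DMSO and equimolar FeCl3 plus clioquinol controls.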
# Potency is read from the fitted curve at half-maximal effect; tags tell the direction and shape of the fitted curve.
SMILES,Potency,growth rescue
O=C(NC1CC1)c1c[nH]c2ccc(S(=O)(=O)Nc3cccc(C(F)(F)F)c3)cc2c1=O,"inconclusive [activator, partial curve, poor fit]",–
Cc1cccc(N2CCN(Cc3nc(-c4ccc(F)cc4F)oc3C)CC2)n1,"inconclusive [activator, partial curve, poor fit]",–
COc1cccc(C2C(C(=O)Nc3ccccc3OC)=C(C)Nc3nc4ccccc4n32)c1 (centres undefined),–,inactive: -1.81%
COc1ccc(NC(=O)C2(C)Cc3c(-c4cccc(C(F)(F)F)c4)ccnc3O2)cc1OC (centres undefined),–,inactive: -3.15%
Cc1ccc(N=C2C(=O)Nc3ccc(Br)cc32)cc1,"inconclusive [activator, single point]",–
O=C(CC1SC(=Nc2ccc(OC(F)F)cc2)N(CCN2CCOCC2)C1=O)Nc1ccc(F)cc1F (centres undefined),–,inactive: 1.62%
CCOC(=O)C(=C1Nc2ccccc2N1)n1c(-c2cccnc2)nc2ccccc21,–,inactive: -17.8%
CCCCCC1CC(CC(=O)Nc2ccc([N+](=O)[O-])cc2)C(=O)O1 (centres undefined),"inconclusive [activator, partial curve, poor fit]",–
Cc1cccc(-n2c(-c3ccc(Br)o3)n[nH]c2=S)c1,"inconclusive [activator, partial curve]",–
O=C(Cn1cnc2c(oc3ccccc32)c1=O)Nc1ccccc1C(F)(F)F,–,inactive: -18.9%
COc1ccc(CN2C(=O)[C@@H]3Cc4c([nH]c5ccccc45)C(C)(C)N3C2=O)cc1,"inconclusive [activator, partial curve, poor fit]",–
Cc1ccc(Cl)cc1NC(=O)C(C)n1nnc2sc3c(c2c1=O)CCCC3 (centres undefined),–,inactive: -1.23%
O=C(CSc1cccc[n+]1[O-])c1cc(Cl)ccc1Cl,"inconclusive [activator, partial curve, poor fit]",–
C/C(CC(=O)Nc1ccc(Cl)c(C(F)(F)F)c1)=N\NC(N)=S,"inconclusive [activator, partial curve, poor fit]",–
CC12CCC(C(=O)Nc3ccccc3Cl)([C@H](Br)C1=O)C2(C)C (some centres undefined),"inconclusive [activator, single point]",–
Cc1ccc(Cc2nc3ccccc3nc2SCC(=O)NCCC(C)C)cc1,–,inactive: 4.63%
Cc1ccc(NC(=O)C2CCN(c3nc4ccccc4nc3C(F)(F)F)CC2)cc1F,–,inactive: -6.24%
CN(C)c1ccc(/C=N\NC(=S)SCN2C(=O)C3CCC(C)(C2=O)C3(C)C)cc1 (centres undefined),"inconclusive [activator, partial curve, poor fit]",–
CCCN1C(=O)/C(=C/c2ccc(OCC(=O)OCC)cc2)NC1=S,–,inactive: 3.79%
